{
  "source": "the supplement of paper PMC10681739",
  "note": "± gives the standard deviation of the averaged measurements. In all, about 4,000 sequences were measured (“arbitrary fluorescence units”: median about 830, highest 2% from about 6,500 on). Most of the strongest results are missing from this list.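 Also: Full-length recombinant human RUNX1 bound to double-stranded DNA microarray spots, detected with an Alexa488-labelled secondary antibody after the anti-RUNX1 primary, read as scanned spot fluorescence.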",
  "data": [
    {"target": "RUNX1 (UniProt Q01196)", "sequence (Q01196 whole entry)": "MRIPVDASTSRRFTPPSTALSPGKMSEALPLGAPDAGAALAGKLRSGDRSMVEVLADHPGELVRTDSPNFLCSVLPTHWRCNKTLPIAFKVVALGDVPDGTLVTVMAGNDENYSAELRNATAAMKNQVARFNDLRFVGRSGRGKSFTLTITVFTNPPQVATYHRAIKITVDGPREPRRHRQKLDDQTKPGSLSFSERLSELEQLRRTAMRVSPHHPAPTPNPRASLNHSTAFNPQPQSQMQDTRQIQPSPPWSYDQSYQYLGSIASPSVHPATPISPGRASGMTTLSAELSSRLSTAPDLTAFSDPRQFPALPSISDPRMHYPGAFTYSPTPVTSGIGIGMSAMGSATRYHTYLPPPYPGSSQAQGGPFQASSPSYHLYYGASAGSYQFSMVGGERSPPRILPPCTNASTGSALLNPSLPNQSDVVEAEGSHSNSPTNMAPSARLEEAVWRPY", "assay": "RUNX1 binding intensity (PBM fluorescence), RUNX1 alone (arbitrary fluorescence units); higher = stronger binding", "settings": "RUNX1 concentration 2 nM; ETS1 concentration 0 nM", "protocol": "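gcPBM on 36-bp genomic-derived probes (partner site mutated) containing one RUNX1 site and no ETS1 site. Recombinant human RUNX1 (2 nM) was incubated alone or with ETS1 (25 nM) and detected by anti-RUNX1 antibody fluorescence. Values are medians over 4 replicate spots (not normalised). The probes sit in constant array flanks that are not printed.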", "values": [
      {"sequence": "AGGCCACCCCCTGCCTCCGCCCGCGGGTCGCAGCCT", "RUNX1 binding intensity": 757},
      {"sequence": "GGTGGCCGCAAATAGATATGCATACGGGCGTTACAC", "RUNX1 binding intensity": 800},
      {"sequence": "GGAGCGGCCGAAGGGAGCTTGCGGCGGGAGGCTGAA", "RUNX1 binding intensity": 739},
      {"sequence": "CCAGAACAAACCACACCCCACTGCCTGTTGCATGCA", "RUNX1 binding intensity": 1210},
      {"sequence": "GGTTTTGGTAAGAAGGAAAGTGGTTTTCATAGGAAG", "RUNX1 binding intensity": 787},
      {"sequence": "CCTTGCGTCCTTCGGTGCAACCTGCGGGAATCCCAT", "RUNX1 binding intensity": 819},
      {"sequence": "AGCTTGTACGGTGGCTGCTGCGCTGCCGCAACGAAT", "RUNX1 binding intensity": 764},
      {"sequence": "GACGAAGCGCGGTCTCACCACGCCCGGGGAAATCGG", "RUNX1 binding intensity": 784},
      {"sequence": "AACAAGGCTGTGGGTGAACCCCAGCTTGCTGCAAAG", "RUNX1 binding intensity": 700},
      {"sequence": "CATGGGGAGGAGGAGGTGGTGGCGGCCGCAGGCCAG", "RUNX1 binding intensity": 793},
      {"sequence": "CAGTGGTTAGGCAGAGGAGGACATACTGCCTGTAAT", "RUNX1 binding intensity": 812},
      {"sequence": "GCCGGCGACCTCCTCCCTTTGTGGGCGCTCCCTGCA", "RUNX1 binding intensity": 802},
      {"sequence": "CTGGTGCCCACAGGACAAATGTCATGCTGTATGTAT", "RUNX1 binding intensity": 744},
      {"sequence": "ACCTTCGCCGGGTGCTGTGGCTGAAACCACAGCATT", "RUNX1 binding intensity": 854},
      {"sequence": "TGGGGGACGGGACCGCGGGAACCCGGCAACGCCTGG", "RUNX1 binding intensity": 740},
      {"sequence": "AGCCAGCCTGATAGGAGATCCTCCCACCACAGCTGA", "RUNX1 binding intensity": 744},
      {"sequence": "TGTTAGGACGTAAGACCGAAAGAGACACACCCACAA", "RUNX1 binding intensity": 829},
      {"sequence": "CTAGCCATGAAGATAAAGAAGAAACCACCAAAGAGA", "RUNX1 binding intensity": 785},
      {"sequence": "CAGAGGCAGCCCACCCCATAAAAGAACCACAGATAA", "RUNX1 binding intensity": 814},
      {"sequence": "GTGGCCACTTGAACCGCAGATGCTTGCTGGGCTGGT", "RUNX1 binding intensity": 2540},
      {"sequence": "GCTCAAGTATCGGAAAGGCCCGCAGAAAGAAGGGCA", "RUNX1 binding intensity": 734},
      {"sequence": "CGCCCGACCGCGTCACGTGTTCGTCAATTGCCTTCA", "RUNX1 binding intensity": 1090},
      {"sequence": "ACCGCTGAGGCGGTTTCCCACCGACTGCCTTTCCAT", "RUNX1 binding intensity": 1040},
      {"sequence": "CCAGGGCCGAAAGTGCTGGTGGTGGTTTCCATCATG", "RUNX1 binding intensity": 800},
      {"sequence": "TGACAGACCCGGGAATAAGAGGAGACCACACACTTG", "RUNX1 binding intensity": 772},
      {"sequence": "CTGTGTAAATAAAGCCACAGACTTCCACCTACAGGT", "RUNX1 binding intensity": "954 ± 84"},
      {"sequence": "AAGACAGTCGCGGTGGGCGGGGACAGGCAGTAAGAC", "RUNX1 binding intensity": 778},
      {"sequence": "ATGGTGCCCGCCGCAGCCGAGGACCGTATAGCCCGC", "RUNX1 binding intensity": 810},
      {"sequence": "CGAAGGAGCAAGCTGCACAGGGTGTCTGTGGCTGGC", "RUNX1 binding intensity": 625},
      {"sequence": "CGAGCATGAAGAAAGCCAGGCTGCGGGGCTGGGGGC", "RUNX1 binding intensity": 727},
      {"sequence": "ACTGATAACAAGACCGCGAGTCAGGGAGCCTGGGTT", "RUNX1 binding intensity": 817},
      {"sequence": "TGGATAACCGCGCAAGGTCTCGCGGCAAGGAGAGGA", "RUNX1 binding intensity": 812},
      {"sequence": "TGGAATTGAAAGGAGGCTGGCGCCACCGCAGAGGAC", "RUNX1 binding intensity": 765},
      {"sequence": "TGCCGTTTTCGGGTCACCCAGGCAGCTTGTGGCGGC", "RUNX1 binding intensity": 710},
      {"sequence": "CAGCCCAGTGGGAACTGGGAGGGGCGGTCAGCAAGA", "RUNX1 binding intensity": 792},
      {"sequence": "GCTGCGGCCCAGCCCGAGCCAGGCCTTGCTCCCCTC", "RUNX1 binding intensity": 875},
      {"sequence": "AGAATTACCAGGGAGCCGAGCGCTGCGGGCTAGCGG", "RUNX1 binding intensity": 674},
      {"sequence": "GCCAAGAAACCACCCAATAGGAGGCCGTAAGCATCG", "RUNX1 binding intensity": 800},
      {"sequence": "CATGCCCGTCCGACCGCGCTGCTTCGGCCTTGCAGC", "RUNX1 binding intensity": 778},
      {"sequence": "CGCCCTCCAGAAGAGAGGGCGGACCGCGGCCGCGCA", "RUNX1 binding intensity": "732 ± 64"},
      {"sequence": "GGTCTGGAGGACGTTTGCAGCTGCTGTGGGTGGTGG", "RUNX1 binding intensity": 787},
      {"sequence": "AGGCGCGCTCTTGCGGCGTCACGGAGGGCGCGCTCT", "RUNX1 binding intensity": 815},
      {"sequence": "GGTGTGGTCAAAACAAACCTCCCAGATCCCGTACGT", "RUNX1 binding intensity": 845},
      {"sequence": "GGCGTGGCCGAAGGCGCGCTGCGGCGCTGCTTTCTC", "RUNX1 binding intensity": 721},
      {"sequence": "TGAGGCAGTGTAAGTCACAATAAGAAGCCACATATA", "RUNX1 binding intensity": 717},
      {"sequence": "CTCACCTCCCCGGCAGCTCCCTCGCCCCGACCGCAG", "RUNX1 binding intensity": 1600},
      {"sequence": "CTTTCGCTCCCTTTCCCCGCCTCTTAGTCCCGCAGA", "RUNX1 binding intensity": 1560},
      {"sequence": "CCCCTGCGGGCCGCCGCTGCGCCCGTGCAGCCGTCA", "RUNX1 binding intensity": 830},
      {"sequence": "ACGGTAATAACCACACACACTTGCTCTTAATCAGTG", "RUNX1 binding intensity": 1410},
      {"sequence": "GACCTCTTTTCATGTACTAGCAACTCCCCGCAGCAG", "RUNX1 binding intensity": 1140},
      {"sequence": "GACGCAATCCCACAGCCTTCTGGGAGACGTAGTTTA", "RUNX1 binding intensity": 930},
      {"sequence": "AGACAGTCACTCACCACAAACAGGAGATAGAACAAG", "RUNX1 binding intensity": 1120},
      {"sequence": "TGAGTCACACCCTGCAGGGCTGCGGTATCCTGGCTT", "RUNX1 binding intensity": 917},
      {"sequence": "AATCCAACACCTCCTCCTCCACCGCAGAAAGGCAAC", "RUNX1 binding intensity": 1800},
      {"sequence": "GCTCGCAGCCGCAAGAGGTGGCCTTCGGTTCCAGGG", "RUNX1 binding intensity": 830},
      {"sequence": "CCTGTCTGCTTCGGCCCGGCTTCGGCCCACAGTCAA", "RUNX1 binding intensity": 931},
      {"sequence": "GGTAAACCACAGCTGCCTGAAGCATGAAGATGAGGG", "RUNX1 binding intensity": 2050},
      {"sequence": "TGGTGGCTATTGCCTCTCCCGCTGTGGTCCCTGGAG", "RUNX1 binding intensity": 666},
      {"sequence": "GGTGTGGGTGCTGCTCCAGGCTATCGGCTGCTCACC", "RUNX1 binding intensity": 659},
      {"sequence": "AACAGTTGCTTGCGGGATATGCTTTCTTGGATCTGT", "RUNX1 binding intensity": 819},
      {"sequence": "AAGCTGCGCGGTCCATGGCGCGTATGCCGGGCCCTG", "RUNX1 binding intensity": 657},
      {"sequence": "CTAACCCTTCTCTTTCTGCAAAAACCACAACAAAGG", "RUNX1 binding intensity": "2930 ± 99"}
    ]}
  ]
}
